Reference: the supplement of paper PMC4604168 (melanoma cell lines)
Some of the results follow. Many values rest on one well or one pass, so single values are uncertain.

Experiments:
Test in all cases: cell count relative to DMSO control; melanoma cells; higher = more viable cells
Settings in all cases: library dose: low library concentration; 72 h
MZ2-MEL = system: MZ2-MEL
MeWo = system: MeWo
RPMI7951 = system: RPMI7951
RVH-421 = system: RVH-421
SkMel28 = system: SkMel28
SkMel2 = system: SkMel2
SkMel30 = system: SkMel30
UACC62 = system: UACC62
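Note: cell number obtained by counting DAPI-stained nuclei in high-throughput microscope images with image analysis software, screen run in 1,536-well plates.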

| SMILES | cell count (MZ2-MEL) [%] | cell count (MeWo) [%] | cell count (RPMI7951) [%] | cell count (RVH-421) [%] | cell count (SkMel28) [%] | cell count (SkMel2) [%] | cell count (SkMel30) [%] | cell count (UACC62) [%] |
| --- | --- | --- | --- | --- | --- | --- | --- | --- |
| COc1cc([C@@H]2c3cc4c(cc3[C@@H](O[C@@H]3O[C@@H]5CO[C@@H](C)O[C@H]5[C@H](O)[C@H]3O)[C@H]3COC(=O)[C@H]23)OCO4)cc(OC)c1O [etoposide] + CC(C)C[C@H](NC(=O)[C@H](Cc1ccccc1)NC(=O)c1cnccn1)B(O)O [Bortezomib] (first compound 0.02 µM, partner dose 0.001 µM) | 67.9 | 79.2 | 81 | 82.4 | 96 | 97.8 | 86.1 | 74.2 |
| C[C@]1(O)C[C@@H](c2nc(-c3ccc4ccc(-c5ccccc5)nc4c3)c3c(N)nccn32)C1 + Nc1ccn([C@@H]2O[C@H](CO)[C@@H](O)C2(F)F)c(=O)n1 [gemcitabine] (first compound 0.4 µM, partner dose 0.0004 µM) | 87 | 89 | 109 | 87.7 | 96.8 | 87.5 | 86.8 | 89.5 |
| C[C@]1(O)C[C@@H](c2nc(-c3ccc4ccc(-c5ccccc5)nc4c3)c3c(N)nccn32)C1 + CNC(=O)c1cc(Oc2ccc(NC(=O)Nc3ccc(Cl)c(C(F)(F)F)c3)cc2)ccn1 [sorafenib] (first compound 0.4 µM, partner dose 0.4 µM) | 82.8 | 88.8 | 86.3 | 95.6 | 106 | 85.9 | 97.8 | 79.8 |
| Cn1cnc2c(F)c(Nc3ccc(Br)cc3Cl)c(C(=O)NOCCO)cc21 [selumetinib] + C[C@]1(c2nc3c(C(N)=O)cccc3[nH]2)CCCN1 [Veliparib] (first compound 0.015 µM, partner dose 1.4 µM) | 93.6 | 92.3 | 104 | 96.9 | 66.7 | 85.9 | 66.9 | 72.1 |
| COc1cc([C@@H]2c3cc4c(cc3[C@@H](O[C@@H]3O[C@@H]5CO[C@@H](C)O[C@H]5[C@H](O)[C@H]3O)[C@H]3COC(=O)[C@H]23)OCO4)cc(OC)c1O [etoposide] + O=C(O)c1ccc2c(c1)nc(Nc1cccc(Cl)c1)c1ccncc12 [CX4945] (first compound 0.02 µM, partner dose 0.4 µM) | 86.4 | 94.9 | 111 | 84.4 | 93.1 | 91.5 | 95.6 | 91.4 |
| CCN(CC)CCNC(=O)c1c(C)[nH]c(/C=C2\C(=O)Nc3ccc(F)cc32)c1C [sunitinib] + O=C(O)c1ccc2c(c1)nc(Nc1cccc(Cl)c1)c1ccncc12 [CX4945] (first compound 0.4 µM, partner dose 0.4 µM) | 101 | 89.7 | 110 | 112 | 111 | 104 | 84.7 | 83.4 |
| CCN(CC)CCNC(=O)c1c(C)[nH]c(/C=C2\C(=O)Nc3ccc(F)cc32)c1C [sunitinib] + Nc1cccc2c1CN(C1CCC(=O)NC1=O)C2=O [lenalidomide] (first compound 0.4 µM, partner dose 1 µM) | 104 | 78.9 | 98.1 | 104 | 95.7 | 113 | 84.7 | 90.6 |
| Cn1cnc2c(F)c(Nc3ccc(Br)cc3Cl)c(C(=O)NOCCO)cc21 [selumetinib] + Cn1c(=O)n(-c2ccc(C(C)(C)C#N)cc2)c2c3cc(-c4cnc5ccccc5c4)ccc3ncc21 [NVP-BEZ235] (first compound 0.015 µM, partner dose 0.004 µM) | 84.8 | 81.2 | 131 | 66.9 | 67.8 | 63.8 | 61.1 | 56.4 |
| CCN(CC)CCNC(=O)c1c(C)[nH]c(/C=C2\C(=O)Nc3ccc(F)cc32)c1C [sunitinib] + CN(c1ncccc1CNc1nc(Nc2ccc3c(c2)CC(=O)N3)ncc1C(F)(F)F)S(C)(=O)=O [PF562271] (first compound 0.4 µM, partner dose 0.08 µM) | 95.3 | 85 | 81.4 | 76.5 | 88.1 | 93.7 | 67.2 | 76 |
| C[C@]1(O)C[C@@H](c2nc(-c3ccc4ccc(-c5ccccc5)nc4c3)c3c(N)nccn32)C1 + C=C(c1ccc(C(=O)O)cc1)c1cc2c(cc1C)C(C)(C)CCC2(C)C [Bexarotene] (first compound 0.4 µM, partner dose 2 µM) | 94.9 | 89.9 | 69.6 | 95.5 | 68.6 | 71.6 | 99 | 98.1 |
| Cn1cnc2c(F)c(Nc3ccc(Br)cc3Cl)c(C(=O)NOCCO)cc21 [selumetinib] + NC1(c2ccc(-c3nc4ccn5c(=O)[nH]nc5c4cc3-c3ccccc3)cc2)CCC1 [MK2206] (first compound 0.015 µM, partner dose 0.4 µM) | 89.3 | 81.9 | 93.7 | 83.8 | 89.8 | 63.9 | 51.4 | 63.2 |
| COc1cc([C@@H]2c3cc4c(cc3[C@@H](O[C@@H]3O[C@@H]5CO[C@@H](C)O[C@H]5[C@H](O)[C@H]3O)[C@H]3COC(=O)[C@H]23)OCO4)cc(OC)c1O [etoposide] + C#Cc1cccc(Nc2ncnc3cc(OCCOC)c(OCCOC)cc23)c1 [erlotinib] (first compound 0.02 µM, partner dose 0.8 µM) | 81.8 | 88.1 | 89.6 | 88.1 | 79.2 | 1.34 | 73.5 | 68.2 |
| C[C@]1(O)C[C@@H](c2nc(-c3ccc4ccc(-c5ccccc5)nc4c3)c3c(N)nccn32)C1 + Cn1c(=O)n(-c2ccc(C(C)(C)C#N)cc2)c2c3cc(-c4cnc5ccccc5c4)ccc3ncc21 [NVP-BEZ235] (first compound 0.4 µM, partner dose 0.004 µM) | 91.2 | 68.7 | 82.7 | 107 | 72.4 | 71.2 | 56.8 | 66 |
| COc1cc([C@@H]2c3cc4c(cc3[C@@H](O[C@@H]3O[C@@H]5CO[C@@H](C)O[C@H]5[C@H](O)[C@H]3O)[C@H]3COC(=O)[C@H]23)OCO4)cc(OC)c1O [etoposide] + C=CCNC1=C2C[C@@H](C)C[C@H](OC)[C@H](O)[C@@H](C)/C=C(\C)[C@H](OC(N)=O)[C@@H](OC)/C=C\C=C(/C)C(=O)NC(=CC1=O)C2=O [Tanespimycin] (first compound 0.02 µM, partner dose 0.002 µM) | 92.9 | 88.6 | 93 | 101 | 101 | 92.2 | 87.6 | 93.7 |
| C[C@]1(O)C[C@@H](c2nc(-c3ccc4ccc(-c5ccccc5)nc4c3)c3c(N)nccn32)C1 + CC(=O)O[C@@]12CO[C@@H]1C[C@H](O)[C@@]1(C)C(=O)[C@H](O)C3=C(C)[C@@H](OC(=O)[C@H](O)[C@@H](NC(=O)OC(C)(C)C)c4ccccc4)C[C@@](O)([C@@H](OC(=O)c4ccccc4)[C@H]21)C3(C)C [Docetaxel] (first compound 0.4 µM, partner dose 0.0001 µM) | 48.3 | 43.4 | 40.6 | 76.7 | 38.8 | 42 | 39.7 | 39.4 |
| Cn1cnc2c(F)c(Nc3ccc(Br)cc3Cl)c(C(=O)NOCCO)cc21 [selumetinib] + Nc1ncn([C@H]2C[C@H](O)[C@@H](CO)O2)c(=O)n1 [decitabine] (first compound 0.015 µM, partner dose 0.1 µM) | 81.6 | 89.1 | 99.2 | 71.7 | 85.1 | 69.2 | 77.5 | 52.9 |
| Cn1cnc2c(F)c(Nc3ccc(Br)cc3Cl)c(C(=O)NOCCO)cc21 [selumetinib] + CCCCCCCCc1ccc(CCC(N)(CO)CO)cc1 [fingolimod] (first compound 0.015 µM, partner dose 2 µM) | 78.9 | 86.1 | 99.2 | 75.5 | 79.1 | 64.8 | 46.5 | 53.5 |
| CCN(CC)CCNC(=O)c1c(C)[nH]c(/C=C2\C(=O)Nc3ccc(F)cc32)c1C [sunitinib] + CC(C)C[C@H](NC(=O)[C@H](Cc1ccccc1)NC(=O)c1cnccn1)B(O)O [Bortezomib] (first compound 0.4 µM, partner dose 0.001 µM) | 102 | 85.2 | 116 | 92.7 | 109 | 114 | 97.3 | 73.2 |
| C[C@]1(O)C[C@@H](c2nc(-c3ccc4ccc(-c5ccccc5)nc4c3)c3c(N)nccn32)C1 + Cn1nnc2c(C(N)=O)ncn2c1=O [temozolomide] (first compound 0.4 µM, partner dose 2 µM) | 99.9 | 92.5 | 80.2 | 87.9 | 81 | 82.6 | 82.8 | 74 |
| CCN(CC)CCNC(=O)c1c(C)[nH]c(/C=C2\C(=O)Nc3ccc(F)cc32)c1C [sunitinib] + OCc1c[nH]c2ccccc12 [Indole-3-carbinol] (first compound 0.4 µM, partner dose 0.8 µM) | 101 | 89 | 96 | 101 | 96.5 | 104 | 66 | 99 |
